# The supplement of paper PMC8728848
# The other results are listed elsewhere or left out.
# B1: SJA (Sophora japonica) (protein)
# chain: FLGLFNSGGYSSSYQIVAVEFDTYINEWDPKTRHIGIDINSINSTKTVTWGWENGEVAIVLISYKAATETLTVSLTYPSSQTSYILSAAVDLKSILPEWVRIGF
# Legend:
# Experiment in all cases: glycan array binding signal (z-score within array); higher = stronger binding
# Settings in all cases: glycan notation: IUPAC condensed, linker removed
# [1] = target: Fuc(a1-2)Gal(b1-4)GlcNAc(b1-3)Gal(b1-4)GlcNAc(b1-2)Man(a1-3)[Fuc(a1-2)Gal(b1-4)GlcNAc(b1-3)Gal(b1-4)GlcNAc(b1-2)Man(a1-6)]Man(b1-4)GlcNAc(b1-4)GlcNAc
# Summary of the method: (§1)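 The binding signal is a Z-score computed within each array. Data were drawn from 3228 arrays in the Consortium for Functional Glycomics database, restricted to those with a known protein sequence. Scores were averaged over arrays of the same protein sequence at different concentrations or buffers, and over linkers, and negative values can be taken as non-binding.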
# [2] = target: Fuc(a1-2)Gal(b1-4)GlcNAc(b1-3)Gal(b1-4)GlcNAc(b1-3)Gal(b1-4)GlcNAc
# Summary of the method: as §1
# [3] = target: Fuc(a1-2)Gal(b1-4)GlcNAc(b1-3)GalNAc
# Summary of the method: as §1
# [4] = target: Fuc(a1-2)Gal(b1-4)GlcNAc(b1-3)[Fuc(a1-2)Gal(b1-4)GlcNAc(b1-6)]GalNAc
# Summary of the method: as §1
# [5] = target: Fuc(a1-2)Gal(b1-4)GlcNAc(b1-3)[Fuc(a1-3)[Gal(b1-4)]GlcNAc(b1-6)]Gal(b1-4)Glc
# Summary of the method: as §1
# [6] = target: Fuc(a1-2)Gal(b1-4)GlcNAc(b1-6)GalNAc
# Summary of the method: as §1
# [7] = target: Fuc(a1-2)Gal(b1-4)GlcNAc6S
# Summary of the method: as §1
# [8] = target: Fuc(a1-2)Gal(b1-4)[Fuc(a1-3)]GlcNAc
# Summary of the method: as §1
# [9] = target: Fuc(a1-2)Gal(b1-4)[Fuc(a1-3)]GlcNAc(b1-2)Man(a1-3)[Fuc(a1-2)Gal(b1-4)[Fuc(a1-3)]GlcNAc(b1-2)Man(a1-6)]Man(b1-4)GlcNAc(b1-4)[Fuc(a1-6)]GlcNAc
# Summary of the method: as §1
# [10] = target: Fuc(a1-2)Gal(b1-4)[Fuc(a1-3)]GlcNAc(b1-2)[Fuc(a1-2)Gal(b1-4)[Fuc(a1-3)]GlcNAc(b1-4)]Man(a1-3)[Fuc(a1-2)Gal(b1-4)[Fuc(a1-3)]GlcNAc(b1-2)Man(a1-6)]Man(b1-4)GlcNAc(b1-4)GlcNAc
# Summary of the method: as §1
# [11] = target: Fuc(a1-2)Gal(b1-4)[Fuc(a1-3)]GlcNAc(b1-3)Gal(b1-4)[Fuc(a1-3)]GlcNAc
# Summary of the method: as §1
# [12] = target: Fuc(a1-2)Gal(b1-4)[Fuc(a1-3)]GlcNAc(b1-3)Gal(b1-4)[Fuc(a1-3)]GlcNAc(b1-3)Gal(b1-4)[Fuc(a1-3)]GlcNAc
# Summary of the method: as §1
# [13] = target: Fuc(a1-2)Gal(b1-4)[Fuc(a1-3)]GlcNAc(b1-3)GalNAc
# Summary of the method: as §1
# [14] = target: Fuc(a1-2)Gal(b1-4)[Fuc(a1-3)]GlcNAc(b1-3)[Neu5Ac(a2-6)Gal(b1-4)GlcNAc(b1-6)]Gal(b1-4)Glc
# Summary of the method: as §1
# [15] = target: Fuc(a1-2)Gal3S(b1-4)GlcNAc
# Summary of the method: as §1
# [16] = target: Fuc(a1-2)Gal6S(b1-3)GlcNAc
# Summary of the method: as §1
# [17] = target: Fuc(a1-2)Gal6S(b1-3)GlcNAc6S
# Summary of the method: as §1
# [18] = target: Fuc(a1-2)Gal6S(b1-4)Glc
# Summary of the method: as §1
# [19] = target: Fuc(a1-2)Gal6S(b1-4)Glc6S
# Summary of the method: as §1
# [20] = target: Fuc(a1-2)GlcNAc
# Summary of the method: as §1
# [21] = target: Fuc(a1-2)[Gal(a1-3)]Gal
# Summary of the method: as §1
# [22] = target: Fuc(a1-2)[Gal(a1-3)]Gal(b1-3)GalNAc
# Summary of the method: as §1
# [23] = target: Fuc(a1-2)[Gal(a1-3)]Gal(b1-3)GalNAc(b1-3)Gal(a1-4)Gal(b1-4)Glc
# Summary of the method: as §1
# [24] = target: Fuc(a1-2)[Gal(a1-3)]Gal(b1-3)GlcNAc
# Summary of the method: as §1
# [25] = target: Fuc(a1-2)[Gal(a1-3)]Gal(b1-3)GlcNAc(b1-2)Man(a1-3)[Fuc(a1-2)[Gal(a1-3)]Gal(b1-3)GlcNAc(b1-2)Man(a1-6)]Man(b1-4)GlcNAc(b1-4)GlcNAc
# Summary of the method: as §1
# [26] = target: Fuc(a1-2)[Gal(a1-3)]Gal(b1-3)GlcNAc(b1-2)Man(a1-3)[Fuc(a1-2)[Gal(a1-3)]Gal(b1-3)GlcNAc(b1-2)Man(a1-6)]Man(b1-4)GlcNAc(b1-4)[Fuc(a1-6)]GlcNAc
# Summary of the method: as §1
# [27] = target: Fuc(a1-2)[Gal(a1-3)]Gal(b1-3)GlcNAc(b1-3)GalNAc
# Summary of the method: as §1
# [28] = target: Fuc(a1-2)[Gal(a1-3)]Gal(b1-3)GlcNAc(b1-6)GalNAc
# Summary of the method: as §1
# [29] = target: Fuc(a1-2)[Gal(a1-3)]Gal(b1-4)Glc
# Summary of the method: as §1
# [30] = target: Fuc(a1-2)[Gal(a1-3)]Gal(b1-4)GlcNAc
# Summary of the method: as §1
# [31] = target: Fuc(a1-2)[Gal(a1-3)]Gal(b1-4)GlcNAc(b1-2)Man
# Summary of the method: as §1
# [32] = target: Fuc(a1-2)[Gal(a1-3)]Gal(b1-4)GlcNAc(b1-2)Man(a1-3)[Fuc(a1-2)[Gal(a1-3)]Gal(b1-4)GlcNAc(b1-2)Man(a1-6)]Man(b1-4)GlcNAc(b1-4)GlcNAc
# Summary of the method: as §1
# [33] = target: Fuc(a1-2)[Gal(a1-3)]Gal(b1-4)GlcNAc(b1-2)Man(a1-3)[Fuc(a1-2)[Gal(a1-3)]Gal(b1-4)GlcNAc(b1-2)Man(a1-6)]Man(b1-4)GlcNAc(b1-4)[Fuc(a1-6)]GlcNAc
# Summary of the method: as §1
# [34] = target: Fuc(a1-2)[Gal(a1-3)]Gal(b1-4)GlcNAc(b1-3)GalNAc
# Summary of the method: as §1
# [35] = target: Fuc(a1-2)[Gal(a1-3)]Gal(b1-4)GlcNAc(b1-6)GalNAc
# Summary of the method: as §1
# [36] = target: Fuc(a1-2)[Gal(a1-3)]Gal(b1-4)[Fuc(a1-3)]Glc
# Summary of the method: as §1
# [37] = target: Fuc(a1-2)[Gal(a1-3)]Gal(b1-4)[Fuc(a1-3)]GlcNAc
# Summary of the method: as §1
# [38] = target: Fuc(a1-2)[Gal(a1-3)]Gal(b1-4)[Fuc(a1-3)]GlcNAc(b1-3)GalNAc
# Summary of the method: as §1
# [39] = target: Fuc(a1-2)[Gal(a1-4)]Gal(b1-4)GlcNAc
# Summary of the method: as §1
# [40] = target: Fuc(a1-2)[GalNAc(a1-3)]Gal
# Summary of the method: as §1
# [41] = target: Fuc(a1-2)[GalNAc(a1-3)]Gal(b1-3)GalNAc(a1-3)[Fuc(a1-2)]Gal(b1-4)GlcNAc
# Summary of the method: as §1
# [42] = target: Fuc(a1-2)[GalNAc(a1-3)]Gal(b1-3)GalNAc(b1-3)Gal(a1-4)Gal(b1-4)Glc
# Summary of the method: as §1
# [43] = target: Fuc(a1-2)[GalNAc(a1-3)]Gal(b1-3)GlcNAc
# Summary of the method: as §1
# [44] = target: Fuc(a1-2)[GalNAc(a1-3)]Gal(b1-3)GlcNAc(b1-2)Man(a1-3)[Fuc(a1-2)[GalNAc(a1-3)]Gal(b1-3)GlcNAc(b1-2)Man(a1-6)]Man(b1-4)GlcNAc(b1-4)GlcNAc
# Summary of the method: as §1
# [45] = target: Fuc(a1-2)[GalNAc(a1-3)]Gal(b1-3)GlcNAc(b1-2)Man(a1-3)[Fuc(a1-2)[GalNAc(a1-3)]Gal(b1-3)GlcNAc(b1-2)Man(a1-6)]Man(b1-4)GlcNAc(b1-4)[Fuc(a1-6)]GlcNAc
# Summary of the method: as §1
binder,measurement,setting,value
B1,glycan array binding signal (z-score),[1],0.111
same,glycan array binding signal (z-score),[2],-0.154
same,glycan array binding signal (z-score),[3],0.094
same,glycan array binding signal (z-score),[4],0.029
same,glycan array binding signal (z-score),[5],-0.156
same,glycan array binding signal (z-score),[6],-0.125
same,glycan array binding signal (z-score),[7],-0.09
same,glycan array binding signal (z-score),[8],-0.182
same,glycan array binding signal (z-score),[9],-0.206
same,glycan array binding signal (z-score),[10],-0.047
same,glycan array binding signal (z-score),[11],-0.149
same,glycan array binding signal (z-score),[12],-0.197
same,glycan array binding signal (z-score),[13],0.142
same,glycan array binding signal (z-score),[14],-0.348
same,glycan array binding signal (z-score),[15],-0.087
same,glycan array binding signal (z-score),[16],-0.266
same,glycan array binding signal (z-score),[17],-0.325
same,glycan array binding signal (z-score),[18],-0.328
same,glycan array binding signal (z-score),[19],-0.047
same,glycan array binding signal (z-score),[20],-0.179
same,glycan array binding signal (z-score),[21],0.674
same,glycan array binding signal (z-score),[22],0.908
same,glycan array binding signal (z-score),[23],0.823
same,glycan array binding signal (z-score),[24],0.795
same,glycan array binding signal (z-score),[25],4.34
same,glycan array binding signal (z-score),[26],0.049
same,glycan array binding signal (z-score),[27],0.01
same,glycan array binding signal (z-score),[28],-0.284
same,glycan array binding signal (z-score),[29],1.58
same,glycan array binding signal (z-score),[30],2.19
same,glycan array binding signal (z-score),[31],0.192
same,glycan array binding signal (z-score),[32],4.98
same,glycan array binding signal (z-score),[33],0.742
same,glycan array binding signal (z-score),[34],0.012
same,glycan array binding signal (z-score),[35],-0.097
same,glycan array binding signal (z-score),[36],0.192
same,glycan array binding signal (z-score),[37],6.46
same,glycan array binding signal (z-score),[38],-0.176
same,glycan array binding signal (z-score),[39],-0.165
same,glycan array binding signal (z-score),[40],-0.225
same,glycan array binding signal (z-score),[41],-0.406
same,glycan array binding signal (z-score),[42],-0.202
same,glycan array binding signal (z-score),[43],-0.195
same,glycan array binding signal (z-score),[44],-0.074
same,glycan array binding signal (z-score),[45],-0.14
